# Test results as given in paper PMC9911399, “Two distinct binding modes provide the RNA-binding protein RbFox with extraordinary sequence specificity”.
# Where a chain is given by its changes, count along the chain named. The list shows a part of the results.
# T1: RBFOX1 RRM RbFoxmut (Fox-RRM*) (Homo sapiens, UniProt Q9NWB1 109-208, R118D;E147R;N151S;E152T)
# T1 sequence: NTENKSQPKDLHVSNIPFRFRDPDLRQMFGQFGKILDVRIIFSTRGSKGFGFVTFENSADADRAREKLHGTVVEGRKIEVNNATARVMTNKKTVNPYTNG
# B1: AUACUUG (DNA:RNA)
# RNA: GGGAGACCGGAAUUCAGAUUGUCCAUACUUGUUAAAUCCCGUCGUAGCCACCA
# DNA 1: CAATCTGAATTCCGGTCTCCC
# DNA 2: TGGTGGCTACGACGGGATT
# B2: CACUUAG (DNA:RNA)
# RNA: B1 RNA with A25C, U26A, A27C, C28U, U30A
# DNA 1: CAATCTGAATTCCGGTCTCCC
# DNA 2: TGGTGGCTACGACGGGATT
# B3: CAAGGUG (DNA:RNA)
# RNA: B1 RNA with A25C, U26A, C28G, U29G
# DNA 1: CAATCTGAATTCCGGTCTCCC
# DNA 2: TGGTGGCTACGACGGGATT
# B4: AUGGCUC (DNA:RNA)
# RNA: B1 RNA with A27G, C28G, U29C, G31C
# DNA 1: CAATCTGAATTCCGGTCTCCC
# DNA 2: TGGTGGCTACGACGGGATT
# B5: UCGCAUU (DNA:RNA)
# RNA: B1 RNA with A25U, U26C, A27G, U29A, G31U
# DNA 1: CAATCTGAATTCCGGTCTCCC
# DNA 2: TGGTGGCTACGACGGGATT
# B6: CAGAAGU (DNA:RNA)
# RNA: GGGAGACCGGAAUUCAGAUUGUCCCAGAAGUUUAAAUCCCGUCGUAGCCACCA
# DNA 1: CAATCTGAATTCCGGTCTCCC
# DNA 2: TGGTGGCTACGACGGGATT
# B7: CUCUUAC (DNA:RNA)
# RNA: B1 RNA with A25C, A27C, C28U, U30A, G31C
# DNA 1: CAATCTGAATTCCGGTCTCCC
# DNA 2: TGGTGGCTACGACGGGATT
# B8: UGUCUGC (DNA:RNA)
# RNA: B1 RNA with A25U, U26G, A27U, U30G, G31C
# DNA 1: CAATCTGAATTCCGGTCTCCC
# DNA 2: TGGTGGCTACGACGGGATT
# B9: GUCGCCU (DNA:RNA)
# RNA: B1 RNA with A25G, A27C, C28G, U29C, U30C, G31U
# DNA 1: CAATCTGAATTCCGGTCTCCC
# DNA 2: TGGTGGCTACGACGGGATT
# B10: GAUUGAC (DNA:RNA)
# RNA: B6 RNA with C25G, G27U, A28U, A29G, G30A, U31C
# DNA 1: CAATCTGAATTCCGGTCTCCC
# DNA 2: TGGTGGCTACGACGGGATT
# B11: GCGGCAC (DNA:RNA)
# RNA: B6 RNA with C25G, A26C, A28G, A29C, G30A, U31C
# DNA 1: CAATCTGAATTCCGGTCTCCC
# DNA 2: TGGTGGCTACGACGGGATT
# B12: CCAUGGG (DNA:RNA)
# RNA: B1 RNA with A25C, U26C, C28U, U29G, U30G
# DNA 1: CAATCTGAATTCCGGTCTCCC
# DNA 2: TGGTGGCTACGACGGGATT
# B13: AUUAAAG (DNA:RNA)
# RNA: B1 RNA with A27U, C28A, U29A, U30A
# DNA 1: CAATCTGAATTCCGGTCTCCC
# DNA 2: TGGTGGCTACGACGGGATT
# B14: UAAACUA (DNA:RNA)
# RNA: B1 RNA with A25U, U26A, C28A, U29C, G31A
# DNA 1: CAATCTGAATTCCGGTCTCCC
# DNA 2: TGGTGGCTACGACGGGATT
# B15: UUUGGGU (DNA:RNA)
# RNA: B6 RNA with C25U, A26U, G27U, A28G, A29G
# DNA 1: CAATCTGAATTCCGGTCTCCC
# DNA 2: TGGTGGCTACGACGGGATT
# B16: ACCACCG (DNA:RNA)
# RNA: B1 RNA with U26C, A27C, C28A, U29C, U30C
# DNA 1: CAATCTGAATTCCGGTCTCCC
# DNA 2: TGGTGGCTACGACGGGATT
# B17: AGCAUUG (DNA:RNA)
# RNA: B1 RNA with U26G, A27C, C28A
# DNA 1: CAATCTGAATTCCGGTCTCCC
# DNA 2: TGGTGGCTACGACGGGATT
# B18: AAUUUUU (DNA:RNA)
# RNA: B1 RNA with U26A, A27U, C28U, G31U
# DNA 1: CAATCTGAATTCCGGTCTCCC
# DNA 2: TGGTGGCTACGACGGGATT
# B19: AUACCUA (DNA:RNA)
# RNA: B1 RNA with U29C, G31A
# DNA 1: CAATCTGAATTCCGGTCTCCC
# DNA 2: TGGTGGCTACGACGGGATT
# B20: AACGAGU (DNA:RNA)
# RNA: B6 RNA with C25A, G27C, A28G
# DNA 1: CAATCTGAATTCCGGTCTCCC
# DNA 2: TGGTGGCTACGACGGGATT
# B21: GGACGCU (DNA:RNA)
# RNA: B1 RNA with A25G, U26G, U29G, U30C, G31U
# DNA 1: CAATCTGAATTCCGGTCTCCC
# DNA 2: TGGTGGCTACGACGGGATT
# B22: ACGUAGU (DNA:RNA)
# RNA: B6 RNA with C25A, A26C, A28U
# DNA 1: CAATCTGAATTCCGGTCTCCC
# DNA 2: TGGTGGCTACGACGGGATT
# B23: AAAUGGU (DNA:RNA)
# RNA: B6 RNA with C25A, G27A, A28U, A29G
# DNA 1: CAATCTGAATTCCGGTCTCCC
# DNA 2: TGGTGGCTACGACGGGATT
# B24: GAAUUUU (DNA:RNA)
# RNA: B1 RNA with A25G, U26A, C28U, G31U
# DNA 1: CAATCTGAATTCCGGTCTCCC
# DNA 2: TGGTGGCTACGACGGGATT
# B25: UGGCGUG (DNA:RNA)
# RNA: B1 RNA with A25U, U26G, A27G, U29G
# DNA 1: CAATCTGAATTCCGGTCTCCC
# DNA 2: TGGTGGCTACGACGGGATT
# B26: UCUUCGG (DNA:RNA)
# RNA: B1 RNA with A25U, U26C, A27U, C28U, U29C, U30G
# DNA 1: CAATCTGAATTCCGGTCTCCC
# DNA 2: TGGTGGCTACGACGGGATT
# B27: CUCUAGC (DNA:RNA)
# RNA: B6 RNA with A26U, G27C, A28U, U31C
# DNA 1: CAATCTGAATTCCGGTCTCCC
# DNA 2: TGGTGGCTACGACGGGATT
# B28: CGCCAUC (DNA:RNA)
# RNA: B1 RNA with A25C, U26G, A27C, U29A, G31C
# DNA 1: CAATCTGAATTCCGGTCTCCC
# DNA 2: TGGTGGCTACGACGGGATT
# B29: AGUCGAA (DNA:RNA)
# RNA: B1 RNA with U26G, A27U, U29G, U30A, G31A
# DNA 1: CAATCTGAATTCCGGTCTCCC
# DNA 2: TGGTGGCTACGACGGGATT
# B30: AAGGUCU (DNA:RNA)
# RNA: B6 RNA with C25A, A28G, A29U, G30C
# DNA 1: CAATCTGAATTCCGGTCTCCC
# DNA 2: TGGTGGCTACGACGGGATT
# B31: UUUAUCU (DNA:RNA)
# RNA: B1 RNA with A25U, A27U, C28A, U30C, G31U
# DNA 1: CAATCTGAATTCCGGTCTCCC
# DNA 2: TGGTGGCTACGACGGGATT
# Target: T1, RBFOX1 RRM RbFoxmut (Fox-RRM*)
# Assay: EMSA; HiTS-Eq, 1 nM pool, 10 min; buffer printed only for the single-RNA assays: 10 mM Tris pH 7.5, 150 mM NaCl, 3.4 mM EDTA, 0.001% NP-40, 30 C
# Conditions: tags: His6 N-terminal (pET28a); label: 5' 32P
# Procedure, shortened: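 Purified RbFox RRM, wild type or mutant, was incubated for 10 min in 50 µL with 1 nM of a 5′-radiolabelled RNA pool carrying 7 randomized nucleotides, whose flanks were annealed to DNA oligonucleotides, over a series of increasing protein concentrations. Unbound RNA was resolved on 8% native PAGE, cut out, reverse-transcribed, barcoded by PCR and sequenced on an Illumina HiSeq 2500. Relative association constants were derived from changes in read counts for each RNA species versus the control reaction and normalised to the cognate motif.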
row,Binder,binding signal
1,B1,0.144 KA relative to UGCAUGU
2,B2,0.16 KA relative to UGCAUGU
3,B3,0.119 KA relative to UGCAUGU
4,B4,0.111 KA relative to UGCAUGU
5,B5,0.0901 KA relative to UGCAUGU
6,B6,0.138 KA relative to UGCAUGU
7,B7,0.105 KA relative to UGCAUGU
8,B8,0.147 KA relative to UGCAUGU
9,B9,0.0766 KA relative to UGCAUGU
10,B10,0.109 KA relative to UGCAUGU
11,B11,0.0725 KA relative to UGCAUGU
12,B12,0.0718 KA relative to UGCAUGU
13,B13,0.142 KA relative to UGCAUGU
14,B14,0.0603 KA relative to UGCAUGU
15,B15,0.0998 KA relative to UGCAUGU
16,B16,0.129 KA relative to UGCAUGU

row,Binder,binding signal
1,B17,0.2 KA relative to UGCAUGU
2,B18,0.0959 KA relative to UGCAUGU
3,B19,0.12 KA relative to UGCAUGU
4,B20,0.0943 KA relative to UGCAUGU
5,B21,0.087 KA relative to UGCAUGU
6,B22,0.15 KA relative to UGCAUGU
7,B23,0.103 KA relative to UGCAUGU
8,B24,0.1 KA relative to UGCAUGU
9,B25,0.321 KA relative to UGCAUGU
10,B26,0.0899 KA relative to UGCAUGU
11,B27,0.0925 KA relative to UGCAUGU
12,B28,0.0812 KA relative to UGCAUGU
13,B29,0.0915 KA relative to UGCAUGU
14,B30,0.0715 KA relative to UGCAUGU
15,B31,0.0759 KA relative to UGCAUGU
